# Test results: the supplement of paper PMC3334620
# Whole data set: some 33,000 sequences, median “E-score (-0.5 to 0.5)” near -0.012, cut for the highest 2% near 0.27. The list shows a part of the results.
# Biological target: T1, Vhr1 (UniProt P40522)
# T1 sequence: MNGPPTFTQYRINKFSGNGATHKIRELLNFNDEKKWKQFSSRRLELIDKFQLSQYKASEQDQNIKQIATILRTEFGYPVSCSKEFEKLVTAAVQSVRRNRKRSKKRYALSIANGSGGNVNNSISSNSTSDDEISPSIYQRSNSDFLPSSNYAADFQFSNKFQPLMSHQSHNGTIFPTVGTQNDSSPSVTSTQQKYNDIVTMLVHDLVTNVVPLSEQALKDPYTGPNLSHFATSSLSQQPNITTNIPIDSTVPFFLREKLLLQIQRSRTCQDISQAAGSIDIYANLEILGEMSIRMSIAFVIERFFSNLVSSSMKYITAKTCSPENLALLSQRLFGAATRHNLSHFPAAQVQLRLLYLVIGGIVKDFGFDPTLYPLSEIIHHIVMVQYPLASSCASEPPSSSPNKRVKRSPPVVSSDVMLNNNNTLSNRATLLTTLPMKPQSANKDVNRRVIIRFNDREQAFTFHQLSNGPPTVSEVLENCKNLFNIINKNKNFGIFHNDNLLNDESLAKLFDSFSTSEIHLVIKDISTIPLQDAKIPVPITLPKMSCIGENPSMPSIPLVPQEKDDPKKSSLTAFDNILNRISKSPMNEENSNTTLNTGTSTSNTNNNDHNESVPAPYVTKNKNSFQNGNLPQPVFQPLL
# Assay: PBM E-score (8-mer binding enrichment) (E-score (-0.5 to 0.5)); higher = stronger / more preferred TF binding; most listed sequences are background and not binding sites
# Settings: protein concentration: 200 nM; construct: GST-full length
# Summary of the method: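 Masliner-normalised scans of fluorescent anti-GST signal were the basis for scoring. That signal came from GST-tagged yeast transcription factors applied at about 100-200 nM to double-stranded universal all-10-mer Agilent arrays on fresh or once-stripped slides. Each ungapped eight-base word, pooled with its reverse complement, received an E-score from the Universal PBM Analysis Suite.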
row,Sequence,PBM E-score
1,ACCATCCA,0.126
2,CCATCAAG,-0.0361
3,GGACTCCA,0.13
4,AGAAAACG,-0.152
5,CCCCATGA,0.0682
6,CATACCTC,0.121
7,CCTGGGCA,-0.187
8,ATTAAGCG,0.0451
9,ACGTCTAT,0.0276
10,CGTCCGGA,-0.028
11,CACGTATA,0.0807
12,AGCGTTCA,-0.25
13,GGCAAACC,-0.0751
14,TAACCTCA,-0.0789
15,AGCTATGA,0.176
16,AAATCTGA,0.179
17,CATCGGAC,-0.0193
18,GCGGTGAA,-0.00362
19,CCATGAAA,-0.12
20,CTAGCCAC,-0.146
21,GCGTTGTA,0.0233
22,CCGGAGAC,0.155

row,Sequence,PBM E-score
1,ACTAGTAT,0.265
2,CAGAGGAC,-0.0753
3,ATAGAACC,0.0175
4,ACAGACCA,0.207
5,ACGGATCT,-0.0165
6,GTATTCGA,-0.024
7,GTGGGCGA,0.0418
8,GGAACTCA,-0.0114
9,TCATGGAA,0.179
10,AGTAGCAC,0.0694
11,CTGACCGC,0.0872
12,AAGGATAG,0.0266
13,TCATAGGA,0.116
14,ACATGGGT,0.0861
15,ACAAGGGT,-0.161
16,CGCGGATA,0.218
17,GGTAGTCA,0.427
18,ATCACCAG,0.111
19,ACTGAAAA,-0.241
20,CTTCTCTC,-0.0394
21,CTTAGCTA,-0.0821
22,ACGCCTCG,-0.132

row,Sequence,PBM E-score
1,AGCTACGC,-0.121
2,TAAAGAAA,-0.268
3,ACGTTAGG,-0.1
4,ACGAACGC,0.243
5,CACCGGAA,0.116
6,CCATGTGA,0.122
7,AAATTAGA,-0.13
8,TCCAATCA,-0.0114
9,CTCGTTGA,-0.00442
10,ATTGACAG,-0.0194
11,GAAAGTCC,-0.317
12,GAATTCAC,0.0126
13,GTATCCAA,0.0689
14,ATCCTCAA,0.0223
15,GCAATCGA,-0.0515
16,ACGTCATG,0.0382
17,ATTACGCG,0.122
18,CGGGTAAC,0.046
19,ACCAGCGA,0.0721
20,CAGCCGCA,0.0479
21,ACCTTTGA,-0.0953
22,GGGAAGAC,-0.0156

row,Sequence,PBM E-score
1,TAGCTAAA,-0.365
2,AGGGATGG,0.14
3,AGTTTTGC,-0.0969
4,CGGACTAA,0.102
5,CACACCAG,0.201
6,ACGACGCA,0.00612
7,AATCCCCA,0.129
8,CTGCACAG,-0.108
9,AGATTTTA,-0.099
10,TATTGGGA,-0.00505
11,GGAGGACC,0.0231
12,CACCGATG,0.0846
13,CCCGATTA,0.158
14,AGGACTGC,-0.19
15,AGACTCAG,0.242
16,GGTACTAC,0.184
17,CTTCGGGC,-0.0449
18,AGTAGCCC,0.0402
19,CGCAGTTC,0.00294
20,CCACTAAG,0.102
